# Assay results as given in paper PMC9911399, “Two distinct binding modes provide the RNA-binding protein RbFox with extraordinary sequence specificity”.
# Substitutions are numbered along the chain they refer to; changes in the protein carry UniProt numbers. The list shows a part of the results.
# T1: RBFOX1 RRM RbFoxmut (Fox-RRM*) (Homo sapiens, UniProt Q9NWB1 109-208, R118D;E147R;N151S;E152T)
# T1 sequence: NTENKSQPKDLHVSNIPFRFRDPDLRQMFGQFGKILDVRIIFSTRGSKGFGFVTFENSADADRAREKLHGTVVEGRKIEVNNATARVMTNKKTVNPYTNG
# B1: GGAUACU (DNA:RNA)
# RNA: GGGAGACCGGAAUUCAGAUUGUCCGGAUACUUUAAAUCCCGUCGUAGCCACCA
# DNA 1: CAATCTGAATTCCGGTCTCCC
# DNA 2: TGGTGGCTACGACGGGATT
# B2: GGGCUGC (DNA:RNA)
# RNA: B1 RNA with A27G, U28C, A29U, C30G, U31C
# DNA 1: CAATCTGAATTCCGGTCTCCC
# DNA 2: TGGTGGCTACGACGGGATT
# B3: AGAUCGG (DNA:RNA)
# RNA: B1 RNA with G25A, A29C, C30G, U31G
# DNA 1: CAATCTGAATTCCGGTCTCCC
# DNA 2: TGGTGGCTACGACGGGATT
# B4: CCUAAUG (DNA:RNA)
# RNA: B1 RNA with G25C, G26C, A27U, U28A, C30U, U31G
# DNA 1: CAATCTGAATTCCGGTCTCCC
# DNA 2: TGGTGGCTACGACGGGATT
# B5: CCGGCUA (DNA:RNA)
# RNA: GGGAGACCGGAAUUCAGAUUGUCCCCGGCUAUUAAAUCCCGUCGUAGCCACCA
# DNA 1: CAATCTGAATTCCGGTCTCCC
# DNA 2: TGGTGGCTACGACGGGATT
# B6: UAGGUUC (DNA:RNA)
# RNA: B5 RNA with C25U, C26A, C29U, A31C
# DNA 1: CAATCTGAATTCCGGTCTCCC
# DNA 2: TGGTGGCTACGACGGGATT
# B7: CGGAGCG (DNA:RNA)
# RNA: B5 RNA with C26G, G28A, C29G, U30C, A31G
# DNA 1: CAATCTGAATTCCGGTCTCCC
# DNA 2: TGGTGGCTACGACGGGATT
# B8: GUGAUAA (DNA:RNA)
# RNA: B5 RNA with C25G, C26U, G28A, C29U, U30A
# DNA 1: CAATCTGAATTCCGGTCTCCC
# DNA 2: TGGTGGCTACGACGGGATT
# B9: UAAGUGU (DNA:RNA)
# RNA: B1 RNA with G25U, G26A, U28G, A29U, C30G
# DNA 1: CAATCTGAATTCCGGTCTCCC
# DNA 2: TGGTGGCTACGACGGGATT
# B10: CUGUAUU (DNA:RNA)
# RNA: B5 RNA with C26U, G28U, C29A, A31U
# DNA 1: CAATCTGAATTCCGGTCTCCC
# DNA 2: TGGTGGCTACGACGGGATT
# B11: UUAAGAA (DNA:RNA)
# RNA: B5 RNA with C25U, C26U, G27A, G28A, C29G, U30A
# DNA 1: CAATCTGAATTCCGGTCTCCC
# DNA 2: TGGTGGCTACGACGGGATT
# B12: UUGCGUA (DNA:RNA)
# RNA: B5 RNA with C25U, C26U, G28C, C29G
# DNA 1: CAATCTGAATTCCGGTCTCCC
# DNA 2: TGGTGGCTACGACGGGATT
# B13: ACAAGAG (DNA:RNA)
# RNA: B5 RNA with C25A, G27A, G28A, C29G, U30A, A31G
# DNA 1: CAATCTGAATTCCGGTCTCCC
# DNA 2: TGGTGGCTACGACGGGATT
# B14: AGUGAGG (DNA:RNA)
# RNA: B1 RNA with G25A, A27U, U28G, C30G, U31G
# DNA 1: CAATCTGAATTCCGGTCTCCC
# DNA 2: TGGTGGCTACGACGGGATT
# B15: GUGGUGA (DNA:RNA)
# RNA: B5 RNA with C25G, C26U, C29U, U30G
# DNA 1: CAATCTGAATTCCGGTCTCCC
# DNA 2: TGGTGGCTACGACGGGATT
# B16: CUGCACG (DNA:RNA)
# RNA: B5 RNA with C26U, G28C, C29A, U30C, A31G
# DNA 1: CAATCTGAATTCCGGTCTCCC
# DNA 2: TGGTGGCTACGACGGGATT
# B17: AGCACGC (DNA:RNA)
# RNA: B5 RNA with C25A, C26G, G27C, G28A, U30G, A31C
# DNA 1: CAATCTGAATTCCGGTCTCCC
# DNA 2: TGGTGGCTACGACGGGATT
# B18: UGUUACU (DNA:RNA)
# RNA: B1 RNA with G25U, A27U
# DNA 1: CAATCTGAATTCCGGTCTCCC
# DNA 2: TGGTGGCTACGACGGGATT
# B19: GGCGGGC (DNA:RNA)
# RNA: B1 RNA with A27C, U28G, A29G, C30G, U31C
# DNA 1: CAATCTGAATTCCGGTCTCCC
# DNA 2: TGGTGGCTACGACGGGATT
# B20: UCACUUC (DNA:RNA)
# RNA: B5 RNA with C25U, G27A, G28C, C29U, A31C
# DNA 1: CAATCTGAATTCCGGTCTCCC
# DNA 2: TGGTGGCTACGACGGGATT
# B21: CCUGACA (DNA:RNA)
# RNA: B5 RNA with G27U, C29A, U30C
# DNA 1: CAATCTGAATTCCGGTCTCCC
# DNA 2: TGGTGGCTACGACGGGATT
# B22: GUCUCAU (DNA:RNA)
# RNA: B1 RNA with G26U, A27C, A29C, C30A
# DNA 1: CAATCTGAATTCCGGTCTCCC
# DNA 2: TGGTGGCTACGACGGGATT
# B23: UUCGGAA (DNA:RNA)
# RNA: B5 RNA with C25U, C26U, G27C, C29G, U30A
# DNA 1: CAATCTGAATTCCGGTCTCCC
# DNA 2: TGGTGGCTACGACGGGATT
# B24: GUUCGAA (DNA:RNA)
# RNA: B5 RNA with C25G, C26U, G27U, G28C, C29G, U30A
# DNA 1: CAATCTGAATTCCGGTCTCCC
# DNA 2: TGGTGGCTACGACGGGATT
# B25: CCGCACU (DNA:RNA)
# RNA: B5 RNA with G28C, C29A, U30C, A31U
# DNA 1: CAATCTGAATTCCGGTCTCCC
# DNA 2: TGGTGGCTACGACGGGATT
# B26: CAUCCUC (DNA:RNA)
# RNA: B5 RNA with C26A, G27U, G28C, A31C
# DNA 1: CAATCTGAATTCCGGTCTCCC
# DNA 2: TGGTGGCTACGACGGGATT
# B27: UACCAGC (DNA:RNA)
# RNA: B1 RNA with G25U, G26A, A27C, U28C, C30G, U31C
# DNA 1: CAATCTGAATTCCGGTCTCCC
# DNA 2: TGGTGGCTACGACGGGATT
# B28: ACAUAUA (DNA:RNA)
# RNA: B5 RNA with C25A, G27A, G28U, C29A
# DNA 1: CAATCTGAATTCCGGTCTCCC
# DNA 2: TGGTGGCTACGACGGGATT
# B29: GAUGCCG (DNA:RNA)
# RNA: B5 RNA with C25G, C26A, G27U, U30C, A31G
# DNA 1: CAATCTGAATTCCGGTCTCCC
# DNA 2: TGGTGGCTACGACGGGATT
# B30: ACCGCGC (DNA:RNA)
# RNA: B5 RNA with C25A, G27C, U30G, A31C
# DNA 1: CAATCTGAATTCCGGTCTCCC
# DNA 2: TGGTGGCTACGACGGGATT
# B31: GCCGAAC (DNA:RNA)
# RNA: B5 RNA with C25G, G27C, C29A, U30A, A31C
# DNA 1: CAATCTGAATTCCGGTCTCCC
# DNA 2: TGGTGGCTACGACGGGATT
# Target: T1, RBFOX1 RRM RbFoxmut (Fox-RRM*)
# Experiment: EMSA; HiTS-Eq, 1 nM pool, 10 min; buffer printed only for the single-RNA assays: 10 mM Tris pH 7.5, 150 mM NaCl, 3.4 mM EDTA, 0.001% NP-40, 30 C
# Conditions: tags: His6 N-terminal (pET28a); label: 5' 32P
# How it was run: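 Relative association constants, normalised to the cognate motif, were derived by comparing read counts of each RNA species with those of the control reaction. The RNA sequenced was the free fraction, separated by 8% native PAGE after a 10 min equilibration in 50 µL of 1 nM 5′-radiolabelled RNA (7 randomized nucleotides) with increasing concentrations of purified wild-type or mutant RbFox RRM.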
row,Binder,binding signal
1,B1,0.0726 KA relative to UGCAUGU
2,B2,0.126 KA relative to UGCAUGU
3,B3,0.124 KA relative to UGCAUGU
4,B4,0.124 KA relative to UGCAUGU
5,B5,0.0822 KA relative to UGCAUGU
6,B6,0.123 KA relative to UGCAUGU
7,B7,0.166 KA relative to UGCAUGU
8,B8,0.094 KA relative to UGCAUGU
9,B9,0.128 KA relative to UGCAUGU
10,B10,0.124 KA relative to UGCAUGU
11,B11,0.121 KA relative to UGCAUGU
12,B12,0.211 KA relative to UGCAUGU
13,B13,0.105 KA relative to UGCAUGU
14,B14,0.111 KA relative to UGCAUGU
15,B15,0.129 KA relative to UGCAUGU
16,B16,0.626 KA relative to UGCAUGU

row,Binder,binding signal
1,B17,0.11 KA relative to UGCAUGU
2,B18,0.119 KA relative to UGCAUGU
3,B19,0.0949 KA relative to UGCAUGU
4,B20,0.0526 KA relative to UGCAUGU
5,B21,0.0551 KA relative to UGCAUGU
6,B22,0.141 KA relative to UGCAUGU
7,B23,0.0883 KA relative to UGCAUGU
8,B24,0.129 KA relative to UGCAUGU
9,B25,0.0955 KA relative to UGCAUGU
10,B26,0.114 KA relative to UGCAUGU
11,B27,0.0761 KA relative to UGCAUGU
12,B28,0.15 KA relative to UGCAUGU
13,B29,0.0721 KA relative to UGCAUGU
14,B30,0.108 KA relative to UGCAUGU
15,B31,0.0734 KA relative to UGCAUGU
